# Assay results: the supplement of paper PMC10126150
# Sequences with one replicate were seen in a single cluster, so their values are uncertain.
# System: ATP
# Test: switch fluorescence ratio, 500 uM ATP over buffer (Cy3 cluster intensity, sum of 5 cycles each) (fold (ratio)); higher = stronger signal-on switching upon ATP binding; sequences stand for … in TCGTCGGCAGCGTCAGATGTGTATAAGAGACAGTTTTTTTTTTTTTTTTTTTTTTTTT…TC
# Settings: aptamer strand: ATP DNA aptamer (quencher-CACCTGGGGGAGTATTGCGGAGGAAGG + anchor), 100 nM annealed; ATP concentration: 500 uM; one replicate
# How it was run: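 Exposure to 500 uM ATP lasted 15 min at 22 °C before imaging, and a selection-buffer image was taken beforehand, for Cy3-labelled switching-strand clusters on a modified Illumina MiSeq flow-cell annealed to 100 nM quencher-labelled ATP aptamer. Five buffer/ATP cycles were run with NaOH stripping and re-annealing between them. The fluorescence ratio per cluster is summed target-cycle over summed buffer-cycle Cy3 intensity, averaged per switch-domain sequence. Clusters outside 100-1000 RFU were excluded.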
row,Sequence,switch fluorescence ratio
1,ACGAGTTATT,0.981
2,AAGAAACAGG,0.973
3,ATTTTCTTGG,0.994
4,ATCCCAGTCG,1.03
5,ATGTATAGAT,0.973
6,CCCCATACGT,1.24
7,ATGAACATTC,1.02
8,GTGGGTTAGT,1.05
9,TCTTCACTG,1.07
10,CATATAGAAC,1.07
11,GAGTAAAGGT,1
12,GGCACCCTAT,1.04
13,GCCACTAGCT,0.984
14,TATCGGTTTA,0.991
15,CAGCCAAGTT,0.973
16,CGAGATTTAG,1.02
17,ATACCAAGCG,0.974
18,CGGGGAGTTC,0.977
19,GAGTATTCCT,1.04
20,GGTTATACCT,1.04
21,TCCCTGCGTC,1.38
22,ATTCCGGTCC,1.06
23,GCGAACGCTT,1.12

row,Sequence,switch fluorescence ratio
1,TCGCTACGAT,1.17
2,TACTACTCCC,1.61
3,GCATTGAGT,0.976
4,TTGATGCTTT,0.995
5,AGTTATTTT,0.982
6,GATCTAGCG,0.948
7,TGGGATGACT,0.982
8,CGGGTAGACC,1.04
9,ACCTTAAACT,1.05
10,GGAAAGCATA,0.999
11,ATGAGCATAG,1.06
12,TCAACGTCGC,1.12
13,CAGGTTTCAG,0.982
14,ATACTATGCG,0.935
15,GCAGCCCGAA,1.03
16,TTGCATGGCA,1.01
17,CAATGTTGAA,1.04
18,ACTAAGACGG,1.02
19,GATAGACATA,1.07
20,AAACCTTATT,1.15
21,TATTCTTTAA,1.02
22,GCGGGAACTT,1.04
23,AAAGATCCCT,0.972

row,Sequence,switch fluorescence ratio
1,GAAGGTAGTA,0.995
2,CAGTTAGTGC,1.01
3,ATATGATTCA,0.98
4,TTTCAGACT,0.985
5,CTGTAATCAA,1.07
6,CGTTTATGCG,0.919
7,TTACTCGGCT,1.04
8,GTGAAACAGG,1.03
9,ACCACTGG,1.03
10,AGACTGCGGA,0.982
11,TATAGAAAA,0.966
12,GTCTTAGTAA,1
13,CGATTTCGGC,0.926
14,GAATGATTGG,0.979
15,TTAGATGTCT,1.01
16,TGCTAGTAT,0.989
17,AATAAGGCAA,1.02
18,TACGGATGAA,0.963
19,CAACGGTTTA,1.04
20,ACGGTGATTT,1.05
21,CGTTAGCTTC,1.07
22,GGGGTCCAGT,0.958
23,CAGACGTATT,1.15

row,Sequence,switch fluorescence ratio
1,TTCAGGTAT,0.966
2,CGAGTCTCAG,1.03
3,ACCTGGTGCC,1.63
4,TAAAATTAGA,0.974
5,CCGGCGATCG,1.01
6,TGCGAGAGTC,0.963
7,AACATGGGTG,0.981
8,TAGTGCG,1
9,CCTTGTGGGC,1.01
10,AGAGGGAAAG,0.972
11,CTTGTGTACT,0.973
12,GGGAGACTTG,0.99
13,CTGCCTGTCA,1.02
14,AATTGGTA,0.983
15,CGGTGATGTT,1
16,AAACGCCTCT,1.02
17,CTATGCCGCA,1.09
18,GGCTTGGGTC,0.967
19,AGGAAAAGGT,0.965
20,TCTGTTCCG,1.01
21,ATCGTCCTGA,0.979
22,TCTTTGC,1.15
23,TTACAGAGGT,1.38

row,Sequence,switch fluorescence ratio
1,AAAAAGAGCA,0.995
2,TAAGATCCGA,1.04
3,TGGTAGCGGA,1
4,GGCTGATTAC,1.14
5,GATGTCAGTA,0.971
6,GGGCGTATGG,0.97
7,ACGAGTGGGG,1.03
8,GGCTAAGGGC,1
9,GAACAGTATA,1.02
10,ACGCGTACGT,1.04
11,CTAAGTTAAG,0.973
12,CGGGCAAGAT,2.06
13,AGGGTGATTC,1.02
14,TGCGGCGTTT,0.982
15,ATTTATCTGT,1.02
16,AAATGGTATT,0.983
17,TACAGTCATT,1.02
18,CATTATTCGT,0.978
19,AGGATGACTC,0.995
20,ACGAACCCAA,1.85
21,CAGGTCAAGT,1.01
22,ACCAGCGAGG,0.993
23,AAAGCATCCC,1.07

row,Sequence,switch fluorescence ratio
1,CTTGTCCGAC,1.1
2,TGCCGATCTA,0.988
3,GGTGTTTAGG,1.05
4,TAAACATTGC,1.58
5,GGAAGGCAC,1.02
6,AGTATGTTAC,1
7,TGAATCCTGC,1.04
8,CAATGCTCCA,2.35
9,GCGTCTCATC,1.02
10,GGATCCTTT,0.971
11,ATTTCGTCGG,0.981
12,TTAATTCT,1.01
13,ATTGGGGCAG,0.979
14,CAAATATCGG,0.99
15,AATAACGTGG,0.989
16,AAGCAGCGTC,0.998
17,CCCTCGGTTT,1.05
18,TGCAAGGTAG,1.02
19,CGGGCGCCTA,1.03
20,CTAGTCGCCT,1.02
21,ATTCAGTATG,0.969
22,GACAAAAATG,1.02
23,GGAACATGAT,0.976

row,Sequence,switch fluorescence ratio
1,ACAGCTGAAC,1.21
2,TTCGTTTACG,1
3,ATGCTCTTCG,1.04
4,TCTACAAAAA,0.988
5,TTTTATTGCC,1
6,CCGTATGTCT,1.09
7,CATAATGGAT,1.04
8,TTAGATTTTG,1
9,GCCGTTTTGT,1.01
10,CCTTTGGAAA,1.04
11,GAACCATGGT,1.05
12,GCGAATGAG,0.95
13,AAACGGCAGT,1.03
14,CACCTGAAAG,1.02
15,GTTATTTTTA,0.986
16,CAAATACAAT,0.991
17,GACCTTTCGC,1.58
18,GATGGTATAT,0.943
19,CAGAGGGAGT,0.953
20,AATGCAACCG,1.04
